# The other results are listed elsewhere or left out.
# B1: SalT (Orysata sativa) (protein)
# chain: MTLVKIGLWGGNGGSAQDISVPPKKLLGVTIYSSDAIRSIAFNYIGVDGQEYAIGPWGGGEGTSTEIKLGSSEHIKEISGTHGPVYDLADIVTYLKIVTSANNTYEAGVPNGKEFSIPLQDSGHVVGFFGRSGTLIDAIGIYVHPILEQKLISEEDLNSAVDHHHHHH
# How the values were obtained:
# Assay in all cases: glycan array binding signal (z-score within array); higher = stronger binding
# Settings in all cases: glycan notation: IUPAC condensed, linker removed
# Fuc(a1-2)Gal = target: Fuc(a1-2)Gal
# In short: (§1)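 Glycan array binding is given as a within-array Z-score, which can be read as non-binding when negative. The arrays, 3228 of them, came from the Consortium for Functional Glycomics database and were retained only where the protein sequence was available. Z-scores were averaged across arrays of the same protein sequence at different concentrations or buffers and across linkers.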
# Fuc(a1-2)Gal(b1-3)GalNAc = target: Fuc(a1-2)Gal(b1-3)GalNAc
# In short: as §1
# [1] = target: Fuc(a1-2)Gal(b1-3)GalNAc(a1-3)[Fuc(a1-2)]Gal(b1-4)Glc
# In short: as §1
# [2] = target: Fuc(a1-2)Gal(b1-3)GalNAc(a1-3)[Fuc(a1-2)]Gal(b1-4)GlcNAc
# In short: as §1
# [3] = target: Fuc(a1-2)Gal(b1-3)GalNAc(b1-3)Gal
# In short: as §1
# [4] = target: Fuc(a1-2)Gal(b1-3)GalNAc(b1-3)Gal(a1-4)Gal(b1-4)Glc
# In short: as §1
# [5] = target: Fuc(a1-2)Gal(b1-3)GalNAc(b1-4)[Neu5Ac(a2-3)]Gal(b1-4)Glc
# In short: as §1
# Fuc(a1-2)Gal(b1-3)GlcNAc = target: Fuc(a1-2)Gal(b1-3)GlcNAc
# In short: as §1
# [6] = target: Fuc(a1-2)Gal(b1-3)GlcNAc(b1-2)Man(a1-3)[Fuc(a1-2)Gal(b1-3)GlcNAc(b1-2)Man(a1-6)]Man(b1-4)GlcNAc(b1-4)GlcNAc
# In short: as §1
# [7] = target: Fuc(a1-2)Gal(b1-3)GlcNAc(b1-2)Man(a1-3)[Fuc(a1-2)Gal(b1-3)GlcNAc(b1-2)Man(a1-6)]Man(b1-4)GlcNAc(b1-4)[Fuc(a1-6)]GlcNAc
# In short: as §1
# [8] = target: Fuc(a1-2)Gal(b1-3)GlcNAc(b1-3)Gal(b1-4)Glc
# In short: as §1
# [9] = target: Fuc(a1-2)Gal(b1-3)GlcNAc(b1-3)GalNAc
# In short: as §1
# [10] = target: Fuc(a1-2)Gal(b1-3)GlcNAc(b1-3)[Fuc(a1-2)Gal(b1-3)GlcNAc(b1-6)]GalNAc
# In short: as §1
# [11] = target: Fuc(a1-2)Gal(b1-3)GlcNAc(b1-3)[Fuc(a1-3)[Gal(b1-4)]GlcNAc(b1-6)]Gal(b1-4)Glc
# In short: as §1
# [12] = target: Fuc(a1-2)Gal(b1-3)GlcNAc(b1-3)[Gal(b1-4)GlcNAc(b1-6)]Gal(b1-4)Glc
# In short: as §1
# [13] = target: Fuc(a1-2)Gal(b1-3)GlcNAc(b1-3)[Neu5Ac(a2-6)Gal(b1-4)GlcNAc(b1-6)]Gal(b1-4)Glc
# In short: as §1
# [14] = target: Fuc(a1-2)Gal(b1-3)GlcNAc6S
# In short: as §1
# [15] = target: Fuc(a1-2)Gal(b1-3)[Fuc(a1-4)]GlcNAc
# In short: as §1
# [16] = target: Fuc(a1-2)Gal(b1-3)[Fuc(a1-4)]GlcNAc(b1-2)Man(a1-3)[Fuc(a1-2)Gal(b1-3)[Fuc(a1-4)]GlcNAc(b1-2)Man(a1-6)]Man(b1-4)GlcNAc(b1-4)GlcNAc
# In short: as §1
# [17] = target: Fuc(a1-2)Gal(b1-3)[Fuc(a1-4)]GlcNAc(b1-2)Man(a1-6)[Fuc(a1-2)Gal(b1-3)[Fuc(a1-4)]GlcNAc(b1-2)Man(a1-3)]Man(b1-4)GlcNAc(b1-4)[Fuc(a1-6)]GlcNAc
# In short: as §1
# [18] = target: Fuc(a1-2)Gal(b1-3)[Fuc(a1-4)]GlcNAc(b1-3)[Fuc(a1-3)[Gal(b1-4)]GlcNAc(b1-6)]Gal(b1-4)Glc
# In short: as §1
# [19] = target: Fuc(a1-2)Gal(b1-3)[Fuc(a1-4)]GlcNAc(b1-3)[Gal(b1-4)GlcNAc(b1-6)]Gal(b1-4)Glc
# In short: as §1
# Fuc(a1-2)Gal(b1-4)Glc = target: Fuc(a1-2)Gal(b1-4)Glc
# In short: as §1
# Fuc(a1-2)Gal(b1-4)Glc6S = target: Fuc(a1-2)Gal(b1-4)Glc6S
# In short: as §1
# Fuc(a1-2)Gal(b1-4)GlcNAc = target: Fuc(a1-2)Gal(b1-4)GlcNAc
# In short: as §1
# [20] = target: Fuc(a1-2)Gal(b1-4)GlcNAc(b1-2)Man
# In short: as §1
# [21] = target: Fuc(a1-2)Gal(b1-4)GlcNAc(b1-2)Man(a1-3)[Fuc(a1-2)Gal(b1-4)GlcNAc(b1-2)Man(a1-6)]Man(b1-4)GlcNAc(b1-4)GlcNAc
# In short: as §1
# [22] = target: Fuc(a1-2)Gal(b1-4)GlcNAc(b1-2)Man(a1-3)[Fuc(a1-2)Gal(b1-4)GlcNAc(b1-2)Man(a1-6)]Man(b1-4)GlcNAc(b1-4)[Fuc(a1-6)]GlcNAc
# In short: as §1
# [23] = target: Fuc(a1-2)Gal(b1-4)GlcNAc(b1-2)[Fuc(a1-2)Gal(b1-4)GlcNAc(b1-4)]Man(a1-3)[Fuc(a1-2)Gal(b1-4)GlcNAc(b1-2)Man(a1-6)]Man(b1-4)GlcNAc(b1-4)GlcNAc
# In short: as §1
# [24] = target: Fuc(a1-2)Gal(b1-4)GlcNAc(b1-3)Gal(b1-4)GlcNAc
# In short: as §1
binder,measurement,setting,value
B1,glycan array binding signal (z-score),Fuc(a1-2)Gal,-0.311
same,glycan array binding signal (z-score),Fuc(a1-2)Gal(b1-3)GalNAc,-0.283
same,glycan array binding signal (z-score),[1],-0.306
same,glycan array binding signal (z-score),[2],-0.31
same,glycan array binding signal (z-score),[3],-0.309
same,glycan array binding signal (z-score),[4],-0.31
same,glycan array binding signal (z-score),[5],-0.308
same,glycan array binding signal (z-score),Fuc(a1-2)Gal(b1-3)GlcNAc,-0.309
same,glycan array binding signal (z-score),[6],0.438
same,glycan array binding signal (z-score),[7],-0.198
same,glycan array binding signal (z-score),[8],-0.31
same,glycan array binding signal (z-score),[9],-0.309
same,glycan array binding signal (z-score),[10],-0.301
same,glycan array binding signal (z-score),[11],-0.308
same,glycan array binding signal (z-score),[12],-0.311
same,glycan array binding signal (z-score),[13],-0.309
same,glycan array binding signal (z-score),[14],-0.303
same,glycan array binding signal (z-score),[15],-0.304
same,glycan array binding signal (z-score),[16],-0.263
same,glycan array binding signal (z-score),[17],-0.284
same,glycan array binding signal (z-score),[18],-0.307
same,glycan array binding signal (z-score),[19],-0.294
same,glycan array binding signal (z-score),Fuc(a1-2)Gal(b1-4)Glc,-0.306
same,glycan array binding signal (z-score),Fuc(a1-2)Gal(b1-4)Glc6S,-0.293
same,glycan array binding signal (z-score),Fuc(a1-2)Gal(b1-4)GlcNAc,-0.305
same,glycan array binding signal (z-score),[20],-0.309
same,glycan array binding signal (z-score),[21],2.62
same,glycan array binding signal (z-score),[22],0.28
same,glycan array binding signal (z-score),[23],-0.246
same,glycan array binding signal (z-score),[24],-0.31
